Source: PubChem BioAssay AID1745853 (National Center for Advancing Translational Sciences (NCATS), 2022)
The list shows a part of the results. The main result of the screen is listed elsewhere. These columns were measured beside it and carry no call.

What was measured:
Experiment in all cases: Primary Screen for Target Class Profiling of Small Molecule Inhibitors of Methyltransferases
[1] = target: Glycine N-methyltransferase (Homo sapiens) (UniProt Q14749); conditions: purified enzyme, MTase-Glo SAH luminescence; measured here: GNMT inhibition; at 40 µM; stronger effect = lower value
From the text: (§1) PI: Matthew D. Hall Ph.D. and Quinlin M. Hanson Ph.D.
(§2) National Center for Advancing Translational Sciences (NCATS)
(§3) National Institute of Health (NIH), Rockville, MD
(§4) Target class profiling (TCP) is a chemical biology approach amenable to investigating understudied biological targets. TCP is achieved by developing a generalizable assay platform and applying it to screen a curated set of compound libraries against representative members of a target class. Small molecule methyltransferases (SMMTase) are a subclass of methyltransferase that act on metabolites to modulate signaling pathways, metabolize xenobiotics, or balance the available methyl pool. We screened four curated libraries totaling 27,574 unique compounds against the SMMTases nicotinamide N-methyltransferase (NNMT), phenylethanolamine N-methyltransferase (PNMT), histamine N-methyltransferase (HNMT), glycine N-methyltransferase (GNMT), catechol O-methyltransferase (COMT), and guanidinoacetate N-methyltransferase (GAMT). The data generated by this TCP can be leveraged for informed tool molecule development. For example, in the associated publication we identified a chemotype of HNMT-selective inhibitors. Additionally, we identified a putative SMMTase-selective inhibitor with potential as a tool molecule for studying broader methyltransferase biology.
(§5) High-through put screening assays were developed at the National Center for Advancing Translational Science (NCATS) for the enzymes NNMT, PNMT, HNMT, GNMT, COMT, and GAMT. Enzymatic activity was measured as a function of SAM cofactor conversion using the MTase Glo kit (Promega) for all enzymes. All assays were performed in 1536-well format with substrates and SAM concentrations at KM values. Enzyme concentration and assay timing were optimized for 10-20% SAM conversion. Initial screening of 27,574 compounds was done as single-point assays using the highest compound concentration (40 uM). […] These compounds were replated in 11-point dose response and assayed against NNMT, PNMT, HNMT, GNMT, COMT, GAMT, and a counter-assay. The IC50 and efficacy (maximal response) values were determined for each dose-response curve. These values are also accounted for in the area under the curve (AUC) values.
(§6) PROTOCOL TABLE (as described by Inglese J, Shamu CE and Guy RK. 2007)
(§7) SEQUENCE No. (e.g., 1, 2, 3, etc.); […] (e.g., Cells, Incubation, Reagent, etc.); VALUE; DESCRIPTION.
(§8) 1; Reagent; 2 uL; SMMTase Enzyme (2x) in reaction buffer, columns 1- 48.
(§9) 2; Reagent; 1 uL; SAM (4x) in reaction buffer, columns 1-48.
(§10) 3; Controls; 23 nL; DMSO in column 4; sinefungin in DMSO (0 uM - 40 uM) in 7-point 1:2 dilution series (n = 2) in column 2.
(§11) 4; Compounds; 23 nL; Columns 5-48.
(§12) 5; Reagent; 1 uL; Substrate (4x) in reaction buffer, columns 2-48.
(§13) 6; Time; 20-30 min; Incubation.
(§14) 7; Reagent; 1 uL; MTase-Glo reagent (5X), columns 1-48.
(§15) 8; Time; 30 min; Incubation.
(§16) 9; Reagent; 5 uL; MTase-Glo Detection reagent, columns 1-48.
(§17) 10; Time; 30 min; Incubation, luminescence evolution.
(§18) 11; Detection; Luminescence; ViewLux uHTS Microplate Imager (PerkinElmer).
(§19) NOTES (numbers refer to Sequence numbers above)
(§20) 1, 2, 5. White Medium Binding Greiner 1536-well plates (Cat #789175-F, Greiner Bio-One, Monroe, NC); Reaction buffer: 50 mM Tris, pH 8.0, 3 mM MgCl2, 1 mM EDTA, 50 mM NaCl, 1 mM DTT, and 0.1 mg/mL BSA. Evaporation was prevented by covering assay plates with metal lids containing holes to allow gas diffusion.
(§21) 1. Six SMMTase were profiled: HNMT, GNMT, PNMT, COMT, NNMT, GAMT
(§22) 5. The corresponding substrate was used for each enzyme: HNMT - 5.3 uM Histamine; GNMT - >500 uM Glycine; PNMT - 16.2 uM Norephinephrine; COMT - 13.7 uM Norephinephrine; NNMT - 3.8 uM Nicotinamide; GAMT - 2.5 uM Guanidinoacetate.6, 8, 10. Room temperature
(§23) 6. Final reaction conditions: 10 nM COMT, 5 uM SAM, 15 uM norepinephrine, 50 mM Tris, pH 8.0, 3 mM MgCl2, 1 mM EDTA, 50 mM NaCl, 1 mM DTT, and 0.1 mg/mL BSA; refer to tables 2 and S1 for specific timing.
8. […]

[2] = target: Guanidinoacetate N-methyltransferase (Homo sapiens) (UniProt Q14353); conditions: purified enzyme, MTase-Glo SAH luminescence; measured here: GAMT inhibition; at 40 µM; stronger effect = lower value
From the text: as §1, §2, §3, §4, §5, §6, §7, §8, §9, §10, §11, §12, §13, §14, §15, §16, §17, §18, §19, §20, §21, §22, §23
8. […]

[3] = target: Histamine N-methyltransferase (Homo sapiens) (UniProt P50135); conditions: purified enzyme, MTase-Glo SAH luminescence; measured here: HNMT inhibition; at 40 µM; stronger effect = lower value
From the text: as §1, §2, §3, §4, §5, §6, §7, §8, §9, §10, §11, §12, §13, §14, §15, §16, §17, §18, §19, §20, §21, §22, §23
8. […]

[4] = target: Nicotinamide N-methyltransferase (Homo sapiens) (UniProt P40261); conditions: purified enzyme, MTase-Glo SAH luminescence; measured here: NNMT inhibition; at 40 µM; stronger effect = lower value
From the text: as §1, §2, §3, §4, §5, §6, §7, §8, §9, §10, §11, §12, §13, §14, §15, §16, §17, §18, §19, §20, §21, §22, §23
8. […]

[5] = target: Phenylethanolamine N-methyltransferase (Homo sapiens) (UniProt P11086); conditions: purified enzyme, MTase-Glo SAH luminescence; measured here: PNMT inhibition; at 40 µM; stronger effect = lower value
From the text: as §1, §2, §3, §4, §5, §6, §7, §8, §9, §10, §11, §12, §13, §14, §15, §16, §17, §18, §19, §20, §21, §22, §23
8. […]
% is scaled to controls: 0 for no effect and ±100 for the full control effect.

| Structure (SMILES) | activity change, negative = inhibition [1] [%] | activity change, negative = inhibition [2] [%] | activity change, negative = inhibition [3] [%] | activity change, negative = inhibition [4] [%] | activity change, negative = inhibition [5] [%] |
| --- | --- | --- | --- | --- | --- |
| COc1ccc2cc3n(c2c1)CC(C)(C(=O)NC1CCCCCC1)N(CCN1CCCCC1C)C3=O (stereo not given) | 6.09 | 0.586 | 7.53 | 4.62 | 2.16 |
| Cc1ccc(CNC(=O)C2(C)Cn3cnc(C(=O)N4CCN(c5ccccc5)CC4)c3C(=O)N2C2CC2)cc1 (stereo not given) | -0.674 | -3.58 | 1.81 | -7.75 | -1.38 |
| COCCNc1nc2c(-c3cccc(Br)c3)nnn2c2ccccc12 | -6.17 | 1.68 | 1.82 | 4.52 | -4.04 |
| COc1ccc(CC(=O)Nc2ccc3ncnc(N4CCCC4)c3c2)c(Cl)c1 | -17.7 | -11.7 | -86.9 | -49.1 | -15.2 |
| CCOCCOC1CCN(S(=O)(=O)c2ccc(OC)cc2)CC1 | -4.66 | -5.59 | -4.07 | -7.32 | 0.705 |
| CCCN(CCc1ccsc1)C1CCc2c(O)cccc2C1 (stereo not given) | 3.15 | 7.29 | -8.84 | -8.12 | -0.813 |
| CC1(c2noc(-c3cccnc3)n2)CCN(C(=O)CCC(=O)N2CC(=O)Nc3ccccc32)CC1 | -0.77 | 3.6 | 3.26 | -6.41 | 2.21 |
| O=C(/C=C/c1ccccc1)OCC1=CC[C@@H]2C(C(=O)O)=CO[C@@H](O[C@@H]3O[C@H](CO)[C@@H](O)[C@H](O)[C@H]3O)[C@H]12 | 0.944 | -2.94 | 3.92 | -14.2 | 4.4 |
| CN1CCCCC1CCNC(=O)c1ccc(N2CCOCC2)nc1 (stereo not given) | 2.5 | 0.175 | -7.63 | 2.94 | 4.09 |
| C[C@]12CCC(=O)C=C1CC[C@@H]1[C@@H]2C(=O)C[C@@]2(C)[C@H]1CC[C@]2(O)C(=O)CO | -10.8 | 1.53 | -2.02 | -7.57 | 4.73 |
| COCCCC/C(=N\OCCN)c1ccc(C(F)(F)F)cc1 | 7.17 | 13.2 | 13.7 | -7.77 | 0.542 |
| CC1(O)CCC2C(C3C1CCC3(C)O)C2(C)C (stereo not given) | 0.8 | 0.131 | 7.72 | -13.6 | 3.09 |
| O=C(O)c1cccc(C2CCCN(C(=O)CCCn3ccnc3)C2)c1 (stereo not given) | -2.94 | -5.05 | -2.14 | -13.9 | 9.96 |
| O=C(O)CNC(=O)CNC(=O)CNC(=O)CSC(=O)c1ccccc1 | -3.9 | -3.27 | 8.91 | -11.6 | 1.52 |
| CC1(C=O)CCCC2(C)C1CCC13CC(CO)C(CCC12)C3 (stereo not given) | 2.65 | 2.93 | -0.118 | -16.8 | -2.54 |
| C=C1C(=O)OC2/C=C(\C)CC/C=C(\C)CC(OC(C)=O)C12 (stereo not given) | -3.55 | -2.09 | 5.77 | -12.8 | -7.83 |
| C=C1C(=O)OC2C3=C(C)C(=O)CC3C(C)CC(O)C12 (stereo not given) | -4.05 | -7.86 | 4.47 | -19.8 | -7.22 |
| COC(=O)[C@H]1CCCN1C(=O)[C@@H]1[C@@H](NC(=O)Nc2ccc(F)cc2F)CCN1C(=O)c1cccn1C | -3.57 | -10.2 | -0.431 | -14.8 | -8.52 |
| CC(=O)c1c(C)nn(CC(=O)NC(C)c2cnn(-c3ccccc3C)c2C)c1C (stereo not given) | 0.804 | 1.93 | 2.75 | -2.37 | 9.18 |
